Literature values in publication PMC4810223 (Toxins, 2016).

Details: cited from earlier work

## NC(=O)[C@@H]1CC[C@H](c2ccc(OCc3ccccc3F)cc2)N1 [CNV1014802]
  protein bound: 94%
